# Laboratory results as given in the supplement of paper PMC8728848.
# The other results are listed elsewhere or left out.
# B1: Arath Fbox (Arabidopsis thaliana), NP_178341.1 (protein)
# chain: EFTWGRKRRVKSESSPFDSFPEDCISYIISFTNPRDACVAATVSKTFESTVKSDIIWEKFLPADYESLIPPSRVFSSKKELYFSLCNDPVLFDDDKKSVWLEKASGKRCLMLSAMNLSIIWGDNPQYWQWIPIPESRFEKVAKLRDVCWFEIRGRTNTRVLSPRTRYSAYIVFKGVDKCYGFQNVAIEAAVGVVGQEPSRRLICFSEAIRRGRRNVVKPKQREDGWMEIELGEFFNDGGIMDNDEIEMSALETKQLNRKCGLIIQGIEIRPAKILAAAAASFLEQKLISEEDLNSAVDHHHHHH
# Columns and labels:
# Assay in all cases: glycan array binding signal (z-score within array); higher = stronger binding
# Conditions in all cases: glycan notation: IUPAC condensed, linker removed
# [1] = target: Gal3S(b1-3)[Fuc(a1-4)]GlcNAc
# In short: (§1)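 The binding signal is a Z-score computed within each array. Data were drawn from 3228 arrays in the Consortium for Functional Glycomics database, restricted to those with a known protein sequence. Scores were averaged over arrays of the same protein sequence at different concentrations or buffers, and over linkers, and negative values can be taken as non-binding.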
# Gal3S(b1-4)Glc = target: Gal3S(b1-4)Glc
# In short: as §1
# Gal3S(b1-4)Glc6S = target: Gal3S(b1-4)Glc6S
# In short: as §1
# Gal3S(b1-4)GlcNAc = target: Gal3S(b1-4)GlcNAc
# In short: as §1
# [2] = target: Gal3S(b1-4)[Fuc(a1-3)]Glc6S
# In short: as §1
# [3] = target: Gal3S(b1-4)[Fuc(a1-3)]GlcNAc
# In short: as §1
# [4] = target: Gal3S(b1-4)[Fuc(a1-3)]GlcNAc6S
# In short: as §1
# Gal3S4S(b1-4)GlcNAc = target: Gal3S4S(b1-4)GlcNAc
# In short: as §1
# Gal3S6S(b1-4)GlcNAc = target: Gal3S6S(b1-4)GlcNAc
# In short: as §1
# Gal3S6S(b1-4)GlcNAc6S = target: Gal3S6S(b1-4)GlcNAc6S
# In short: as §1
# Gal4S(b1-4)GlcNAc = target: Gal4S(b1-4)GlcNAc
# In short: as §1
# Gal4S6S(b1-4)GlcNAc = target: Gal4S6S(b1-4)GlcNAc
# In short: as §1
# Gal6P(b1-4)GlcNAc = target: Gal6P(b1-4)GlcNAc
# In short: as §1
# Gal6S(b1-3)GlcNAc = target: Gal6S(b1-3)GlcNAc
# In short: as §1
# Gal6S(b1-3)GlcNAc6S = target: Gal6S(b1-3)GlcNAc6S
# In short: as §1
# Gal6S(b1-4)Glc = target: Gal6S(b1-4)Glc
# In short: as §1
# Gal6S(b1-4)Glc6S = target: Gal6S(b1-4)Glc6S
# In short: as §1
# Gal6S(b1-4)GlcNAc = target: Gal6S(b1-4)GlcNAc
# In short: as §1
# Gal6S(b1-4)GlcNAc6S = target: Gal6S(b1-4)GlcNAc6S
# In short: as §1
# GalNAc(a1-3)Gal = target: GalNAc(a1-3)Gal
# In short: as §1
# GalNAc(a1-3)GalNAc = target: GalNAc(a1-3)GalNAc
# In short: as §1
# [5] = target: GalNAc(a1-3)GalNAc(b1-3)Gal(a1-4)Gal(b1-4)Glc
# In short: as §1
# [6] = target: GalNAc(a1-3)GalNAc(b1-3)Gal(a1-4)Gal(b1-4)GlcNAc
# In short: as §1
# GalNAc(b1-3)Gal = target: GalNAc(b1-3)Gal
# In short: as §1
# [7] = target: GalNAc(b1-3)Gal(a1-4)Gal(b1-4)GlcNAc
# In short: as §1
# [8] = target: GalNAc(b1-3)Gal(a1-4)Gal(b1-4)GlcNAc(b1-3)Gal(b1-4)Glc
# In short: as §1
# [9] = target: GalNAc(b1-3)Gal(a1-6)Gal(b1-4)Glc
# In short: as §1
# GalNAc(b1-3)GalNAc = target: GalNAc(b1-3)GalNAc
# In short: as §1
# GalNAc(b1-3)GlcNAc = target: GalNAc(b1-3)GlcNAc
# In short: as §1
# GalNAc(b1-4)Gal(b1-4)Glc = target: GalNAc(b1-4)Gal(b1-4)Glc
# In short: as §1
# GalNAc(b1-4)GlcNAc = target: GalNAc(b1-4)GlcNAc
# In short: as §1
# [10] = target: GalNAc(b1-4)GlcNAc(b1-2)Man
# In short: as §1
# [11] = target: GalNAc(b1-4)GlcNAc(b1-2)Man(a1-3)[GalNAc(b1-4)GlcNAc(b1-2)Man(a1-6)]Man(b1-4)GlcNAc(b1-4)GlcNAc
# In short: as §1
# [12] = target: GalNAc(b1-4)GlcNAc(b1-3)GalNAc(b1-4)GlcNAc
# In short: as §1
# GalNAc(b1-4)GlcNAc6S = target: GalNAc(b1-4)GlcNAc6S
# In short: as §1
# GalNAc(b1-6)GalNAc = target: GalNAc(b1-6)GalNAc
# In short: as §1
# GalNAc3S(b1-4)GlcNAc = target: GalNAc3S(b1-4)GlcNAc
# In short: as §1
binder,measurement,setting,value
B1,glycan array binding signal (z-score),[1],-0.228
same,glycan array binding signal (z-score),Gal3S(b1-4)Glc,1
same,glycan array binding signal (z-score),Gal3S(b1-4)Glc6S,0.422
same,glycan array binding signal (z-score),Gal3S(b1-4)GlcNAc,0.801
same,glycan array binding signal (z-score),[2],-0.156
same,glycan array binding signal (z-score),[3],-0.48
same,glycan array binding signal (z-score),[4],2.7
same,glycan array binding signal (z-score),Gal3S4S(b1-4)GlcNAc,-0.115
same,glycan array binding signal (z-score),Gal3S6S(b1-4)GlcNAc,0.568
same,glycan array binding signal (z-score),Gal3S6S(b1-4)GlcNAc6S,0.933
same,glycan array binding signal (z-score),Gal4S(b1-4)GlcNAc,-0.599
same,glycan array binding signal (z-score),Gal4S6S(b1-4)GlcNAc,-0.197
same,glycan array binding signal (z-score),Gal6P(b1-4)GlcNAc,-0.718
same,glycan array binding signal (z-score),Gal6S(b1-3)GlcNAc,1.69
same,glycan array binding signal (z-score),Gal6S(b1-3)GlcNAc6S,-0.526
same,glycan array binding signal (z-score),Gal6S(b1-4)Glc,1.6
same,glycan array binding signal (z-score),Gal6S(b1-4)Glc6S,0.908
same,glycan array binding signal (z-score),Gal6S(b1-4)GlcNAc,-0.16
same,glycan array binding signal (z-score),Gal6S(b1-4)GlcNAc6S,-0.365
same,glycan array binding signal (z-score),GalNAc(a1-3)Gal,-0.136
same,glycan array binding signal (z-score),GalNAc(a1-3)GalNAc,0.128
same,glycan array binding signal (z-score),[5],-0.638
same,glycan array binding signal (z-score),[6],-0.355
same,glycan array binding signal (z-score),GalNAc(b1-3)Gal,0.986
same,glycan array binding signal (z-score),[7],-0.151
same,glycan array binding signal (z-score),[8],-0.087
same,glycan array binding signal (z-score),[9],-0.523
same,glycan array binding signal (z-score),GalNAc(b1-3)GalNAc,-0.429
same,glycan array binding signal (z-score),GalNAc(b1-3)GlcNAc,-0.513
same,glycan array binding signal (z-score),GalNAc(b1-4)Gal(b1-4)Glc,0.06
same,glycan array binding signal (z-score),GalNAc(b1-4)GlcNAc,0.202
same,glycan array binding signal (z-score),[10],0.551
same,glycan array binding signal (z-score),[11],-0.305
same,glycan array binding signal (z-score),[12],-0.196
same,glycan array binding signal (z-score),GalNAc(b1-4)GlcNAc6S,0.602
same,glycan array binding signal (z-score),GalNAc(b1-6)GalNAc,-0.638
same,glycan array binding signal (z-score),GalNAc3S(b1-4)GlcNAc,-0.68
